Read counts are not given, so values of variants with three or more changes are uncertain.
B1: LINE1-mini (parent)
chain: GGCAGAGCUCAACACAGCGUGGCAAAGUGGCUGUGGCUAGACUGCC

Variants of: B1
Assay: self-cleavage, relative activity (ratio to wild type); higher = more cleavage; in vitro, sequencing; the parent is a self-cleaving ribozyme

Variant | self-cleavage
G1A U9A C31U | 0.02
C3U A4G A11G | 0.03
C23A U34G G44C | 0.04
C3A A6G G33C | 0.03
A6C C18U G21A A25U G29A | 1.44
C23G A25C C37A U38G | 0.01
A12C U20G G29U U34G | 0.02
A4G G30A U43C | 1.79
A16U G36C C42A | 0.03
A6C C10A A25U A39U | 0.11
C10A A12U U28C G36A G40C U43C | 0
C13U C18A U32G U43G | 0.01
G1A C23U G29A C31G G44A | 0.14
G1U A11C C45A | 0.01
C13A C15G A16U C18A G21A C23G C31A G44A | 0.03
G5A A16G G40A C45A | 0
G2A C15G G17C | 0.05
U9A A11G G19C C37U C42G | 0
A6G A16C U20A G35U | 0.02
C8U C23U G40C | 0.09
C13A G17U A26U A41U | 0.15
A6C G35C G40A | 0.08
G5A U9A A16C C23A G27A | 0.07
A14U C15U U28C G36C C46G | 0.01

Variant | self-cleavage
C8U U9C G21U C37G | 0.03
A12G A25G G30C | 0.03
A11U G21U U28C | 0.09
A26U C31A G36C | 0.05
A6U A12G A14C G44U | 0.08
C3U C23A C42G | 0.13
C15U C18G C45U | 0.08
C3U A6G C8U G19C U28C C46U | 0.05
A4C A12G U32G G35A | 0.21
C15A C23A G44A | 0.07
A4U G5C G17C U28A U38G C45U | 0.05
G2A C23A C37U | 0.15
C15U A24U A25C G35A G36C U38A | 0.05
G2U G7A U34G | 0.01
G5C C10U G40C | 0.02
C13A G27A G44A | 0.05
C15A G21U U38A | 0.23
C15G C23U G40U | 0.02
A12G G30C A41C | 0
A25U G30U A41U | 0.1
A6C C8A A14G A41G C42A | 0.02
C23G G27C C42U | 0.16
A11C A14G G36U | 0.02
G1U C15U G29U A41U | 0.15

Variant | self-cleavage
G7A C8A G19C G29U U34C G40U | 0.11
G5U C13A A16C C23A C42A | 0.02
G2C G5U A39U | 0.01
G2C G7U C18U G22A G30C G33A | 0.01
G1C C15A G27C G44C C45G | 0.05
G2U C8G C13A G22A G30C | 0.03
G22U G36U G40U C42A C45A | 0.1
G22C C23U G35U G44A | 0.1
U9G A12C G29A | 0.02
G1U C23A U32G G33C | 0.04
G7U A14U C31A G33A G40A | 0.15
G1U U38G U43A | 0
C10U A14C G17U G27U G33U G36C U38C G40U | 0
G7A C10U A25G | 0.01
G2C C15A G29A | 0.02
C15U A26U G27C U34A G35A G40U | 0.43
C8U C18U C37U C45U | 0.22
U20G A25G U28A C46U | 0.25
G7U C10A A11C G22A | 0.02
G19A A24U G36A | 0.15
C15A G29U G33U A39C | 0.04
C10U A14G A25C G27U | 0.25
C8A A16C G35A G36A U38C | 0.09
A16G G35U G40U | 0.03

Variant | self-cleavage
C10U A12U C13U C42U C46A | 0.02
C8G C31U G40C | 0.04
C13A G27C G40U | 0.1
C3U A6G G30U C37A | 0.38
G7C G30U C37G A39C | 0.02
G5C C23A G33A G44A | 0.13
G1A C13A G22U G44U | 0.02
C13U A24C G29A U34A G44U | 0
G22A C31U U43A | 0.02
C3A G35C C37A | 0.18
C10U C15A C23A A26U | 0.01
G22C A24U G36A | 0.13
A26G G27A G40C | 0.06
G1U A16U G30U C31U G35C | 0.03
C8U A14U G17U G22U A41C | 0.08
C15A G17C A26G G44C | 0.03
C8A C15U A41G | 0.38
G2U A11U C13U G17A G21U A39U | 0.01
G35U C37G C46A | 0.02
A16G A26U C37A | 0.01
G1C G5U C10A | 0.01
C13U A26G C37G | 0
A16G G30C G36A A39U | 0.08
C10U C23A C31G G40C U43C | 0.02

Variant | self-cleavage
G35U G36A A39G | 0.11
C3G A6G A26C G33A | 0.08
G1U C3U A16C G22C | 0.03
G7A C23U G33U | 0.06
G29U C31U G40C | 0.03
U9A A16G C42A | 0.02
A6U U9G A14C G21A C31G | 0.01
C13G C31A C42U G44A | 0.02
G7C U32C G33U C45A | 0.11
G2U A26U U28A | 0
C15U G19A A25G U28G | 0.21
C3G A4G G33U G40U C45A | 0.05
C3G G29U G35U | 0.23
G7A A11C C23U A26G U28C | 0.01
G19C G35C A41C C45U | 0.01
G7C C13U G17C A39G G40U | 0.05
G2C C10U G19C U20C G30U A39G A41C G44A | 0.04
G7C C8U C23U G29C | 0.11
G21A G35U U38G G44A | 0.01
G7C G22U C46A | 0.08
A14U A41G G44A | 0.01
G1A C8U A12U A14U C37A | 0.07
G1C C15G G40C | 0.01
G1U C10A U20A G22A A25C G40U U43A | 0

Variant | self-cleavage
C13U G29C U32C C46U | 0.04
C15U C18U G30U A41U | 0
C8G C13A G22A G40A | 0.03
G1C G19U A24U A25U U38A C46A | 0.02
U9A G36A G40A | 0.13
G5C A25U G30C | 0.02
A6U A11C U38C C42U | 0.04
C8A G17U G33U | 0.12
G2A C8U C18A C37G C42G | 0.07
C3A A12C G22U | 0.05
C23G A26C U32A U38G | 0.02
C10U A12U C23A A41U | 0.04
G21U G22A A26G | 0.67
G2A A6U C10U | 0.37
A6C G7C C46A | 0.23
C10A A12G A26G U32A | 0.03
G2A G17U U28G C46U | 0.05
A6G C13U A26U U38G C42U | 0.05
A16U G36A U43C | 0.88
C3U A11U G27U C37G | 0.02
C10G G17A A41G | 0.05
G5U A14G U38C A41G | 0.05
G33U U38A C42A | 0.29
G5C A6G G21U | 0.09

Variant | self-cleavage
A11G C18U G27U | 0.03
A12U G19C C31G | 0.17
G7C G17U A26U A41C | 0.03
A11G A14G G27C C37G | 0.01
G1A G5A G27U G29U | 0.16
C3A G7C G33C G40C | 0.03
G5C G7A C45A C46U | 0.24
C10G A24U U34A | 0.04
G21C A25G C46A | 0.61
G1U U9A C13U C15A U20C A24C | 0.01
C10G U28G G33A G35C | 0.02
C10A C15U A41G C45G | 0
A4C G5U C8A C37A | 0.04
G2C C8U A14C C18U | 0.05
G5U G27U U32G | 0.02
C8G A12U C31G | 0.03
G30A G35C G36U G40A | 0.02
C8G U32G U34G | 0.02
U9A A25U A26G | 0.08
C13U G17A A25C G40C | 0.04
G19C C23G A24C | 0.78
G1U A14U G17A C23A G44U | 0.03
C10G C15G A24G G36C | 0.01

From the RNAGym collection of RNA variant scans (doi:10.7554/elife.90254)
